The other results are listed elsewhere or left out. Values were computed here from the reads of four pooled replicates and scatter widely.
What follows are sequences tested against T1, Pho4 (S. cerevisiae) (UniProt P07270) (assay: relative binding free energy (BET-seq); higher = weaker binding). Details: reference: library average.
T1 sequence: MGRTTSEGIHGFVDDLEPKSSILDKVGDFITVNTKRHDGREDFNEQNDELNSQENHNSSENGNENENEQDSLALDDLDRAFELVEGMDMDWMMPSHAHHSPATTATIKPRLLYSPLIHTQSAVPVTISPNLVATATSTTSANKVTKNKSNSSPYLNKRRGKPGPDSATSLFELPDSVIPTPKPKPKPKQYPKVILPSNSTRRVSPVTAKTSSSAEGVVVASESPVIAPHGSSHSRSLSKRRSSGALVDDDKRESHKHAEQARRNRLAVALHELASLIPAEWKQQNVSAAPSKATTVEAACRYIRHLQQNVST

Sequence | relative binding free energy
TGTCGCACGTGAGTGA | -0.11 kcal/mol
TTTCGCACGTGTGTGA | -0.04 kcal/mol
TCGTGCACGTGCTGAG | 0.05 kcal/mol
TTAAGCACGTGGGAGG | -0.21 kcal/mol
GTTGACACGTGAAATG | 0.34 kcal/mol
TTGAACACGTGGGGGC | -0.17 kcal/mol
TTGGCCACGTGTGATT | 0.01 kcal/mol
AGTCACACGTGAGTGG | 0.31 kcal/mol
CCTGTCACGTGTTGTT | 0.13 kcal/mol
GGTATCACGTGCTTAG | 0.19 kcal/mol
GTGTACACGTGGAGTG | -0.07 kcal/mol
GTTAACACGTGTTTGA | -0.02 kcal/mol
TGAAGCACGTGGATGT | -0.11 kcal/mol
GAGTGCACGTGATTAT | 0.24 kcal/mol
TGGGGCACGTGACTGT | 0.03 kcal/mol
TTTTTCACGTGAGGAC | 0.29 kcal/mol
AATGTCACGTGTAGCT | -0.02 kcal/mol
GGTGGCACGTGGGCGT | -0.21 kcal/mol
GATCACACGTGGTTGT | 0.28 kcal/mol
TGTCACACGTGATTTT | 0.2 kcal/mol
TGGGACACGTGGATGT | 0.06 kcal/mol

Sequence | relative binding free energy
CGATGCACGTGATTGG | 0.23 kcal/mol
ATTAGCACGTGCGATT | -0.01 kcal/mol
GTAAACACGTGGGTAT | -0.02 kcal/mol
CTTGGCACGTGGATTT | -0.12 kcal/mol
ATAGGCACGTGGTTTG | -0.05 kcal/mol
AGTAGCACGTGTTTTT | -0.01 kcal/mol
TGCGTCACGTGGGCGG | -0.05 kcal/mol
GTTGCCACGTGATGGT | 0.22 kcal/mol
TTATTCACGTGTGATA | 0.3 kcal/mol
ATCCTCACGTGGAGGG | 0.33 kcal/mol
TCGTTCACGTGGGTGT | 0.17 kcal/mol
GGGAACACGTGGGGCA | -0.05 kcal/mol
GGAGGCACGTGCGAAG | -0.05 kcal/mol
TGGGTCACGTGTATGA | 0.15 kcal/mol
AGGGGCACGTGGAGGC | -0.13 kcal/mol
ACTTGCACGTGGTCGG | -0.14 kcal/mol
GGCCGCACGTGGGGGA | -0.24 kcal/mol
ACTGGCACGTGTATTT | 0.14 kcal/mol
CAGGGCACGTGGTGTG | -0.18 kcal/mol
GGTTGCACGTGGCAGT | 0.05 kcal/mol
GGAGGCACGTGTAATA | 0.14 kcal/mol

Sequence | relative binding free energy
TGAGTCACGTGGTTAG | 0.12 kcal/mol
AACTGCACGTGTGGAT | 0.05 kcal/mol
TTCAGCACGTGGTATA | -0.13 kcal/mol
AGTGCCACGTGTGCGG | -0.11 kcal/mol
TGATTCACGTGGTTAT | 0.17 kcal/mol
GTTGCCACGTGTTTGT | -0.23 kcal/mol
AGATACACGTGTGGGG | 0.09 kcal/mol
GGAATCACGTGGACGT | 0.2 kcal/mol
TAGTACACGTGCAGGG | 0.09 kcal/mol
GTATCCACGTGGAGTG | 0.03 kcal/mol
TCTGCCACGTGGGGGG | -0.24 kcal/mol
TGTGACACGTGTGCCT | 0.02 kcal/mol
GGTATCACGTGTCAGG | 0.14 kcal/mol
TTTGACACGTGGACGG | -0.1 kcal/mol
TCGTCCACGTGGGAGT | -0.01 kcal/mol
TGTCGCACGTGTTCGT | 0.02 kcal/mol
TTTATCACGTGTTTAC | 0.11 kcal/mol
TCCGTCACGTGGTGTA | 0.15 kcal/mol
TTAAGCACGTGTCGGG | -0.06 kcal/mol
TAATTCACGTGATGGG | 0.47 kcal/mol
AGGTTCACGTGGATTG | 0.24 kcal/mol
